Test results published in the supplement of paper PMC12217912.
Some of the results follow. Sequences were assembled here from the parent chain. Values near 0.05 are background.

B1: TEV protease; numbered along this chain (parent)
chain: MGESLFKGPRDYNPISSSICHLTNESDGHTTSLYGIGFGPFIITNKHLFRRNNGTLVVQSLHGVFKVKDTTTLQQHLVDGRDMIIIRMPKDFPPFPQKLKFREPQREERICLVTTNFQTKSMSSMVSDTSCTFPSGDGIFWKHWIQTKDGQCGSPLVSTRDGFIVGIHSASNFTNTNNYFTSVPKNFMELLTNQEAQQWVSGWRLNADSVLWGGHKVFMVKPEEPFQPVKEATQL

Variants of: B1
Experiment: raw area under fraction-flipped curve 0-4 h after induction (AUC4h, not background-subtracted), DNA-recorder readout of cleavage of the substrate (dimensionless); higher = more cleavage of the substrate by the protease variant
Conditions: temperature: 34 °C; time window: 0-4 h after rhamnose induction
Procedure: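 In vivo DNA recorder in E. coli TOP10(DE3) ΔrhaA at 34 °C. Each TEVp single-site mutant (parent TEVp 0) is paired with a single-site variant of the 7-mer TEVs (canonical ENLYFQ|S). The substrate sits between flexible linkers in a Bxb1-sfGFP-TEVs-SsrA fusion, so cleavage stabilises Bxb1 and speeds flipping of a recombination array, read by NGS. The value is the raw area under the fraction-flipped curve over 0-4 h after rhamnose induction (AUC4h), with ≥20 reads per time point. It is not background-subtracted; inactive controls average about 0.047.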
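Note: Bxb1 expression induced with 0.2% (w/v) L-rhamnose at OD600 near 0.5, cultures sampled hourly, flipped fraction per protease–substrate barcode pair counted by paired-end Illumina sequencing.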

Variant | area with substrate ENLAFQS | area with substrate ENLDFQS | area with substrate ENLEFQS | area with substrate ENLFFQS | area with substrate ENLHFQS | area with substrate ENLLFQS | area with substrate ENLNFQS | area with substrate ENLPFQS | area with substrate ENLQFQS | area with substrate ENLRFQS | area with substrate ENLSFQS | area with substrate ENLVFQS | area with substrate ENLWFQS | area with substrate ENLGFQS | area with substrate ENLIFQS | area with substrate ENLKFQS | area with substrate ENLMFQS | area with substrate ENLCFQS | area with substrate ENLTFQS
K100V | 0.0744 | 0.0593 | 0.0589 | 0.0843 | 0.0712 | 0.0781 | 0.0533 | 0.063 | 0.0762 | 0.0737 | 0.0724 | 0.076 | 0.0613 | – | – | – | – | – | –
R102C | 0.0639 | 0.0536 | 0.0468 | 0.0532 | 0.0431 | 0.0662 | 0.0648 | – | – | 0.0601 | 0.0551 | – | 0.0571 | 0.0626 | 0.0566 | 0.0616 | 0.0407 | – | –
R102T | 0.0464 | 0.0643 | 0.0747 | 0.0333 | 0.0511 | 0.0422 | 0.0486 | – | 0.0635 | 0.0504 | 0.0597 | – | – | – | 0.0571 | 0.0737 | 0.0593 | 0.0342 | –
E103C | 0.0762 | 0.0626 | 0.0798 | 0.1 | 0.0654 | 0.0672 | 0.0658 | – | – | 0.0695 | 0.0791 | 0.11 | 0.108 | – | – | 0.0775 | – | 0.0954 | –
E103L | 0.0846 | 0.0579 | – | 0.114 | 0.07 | – | 0.0474 | 0.0657 | 0.0798 | 0.098 | 0.0824 | – | 0.0979 | – | 0.0912 | 0.0776 | – | 0.0773 | –
E103Q | 0.0677 | 0.0736 | 0.0594 | 0.0691 | 0.0516 | 0.072 | 0.0696 | 0.056 | 0.0717 | – | 0.0711 | 0.0666 | 0.0567 | – | 0.0773 | 0.077 | 0.0724 | – | 0.0771
Q105C | 0.0662 | 0.0647 | 0.0672 | – | 0.0779 | 0.0582 | 0.0789 | – | – | 0.0552 | 0.0659 | – | 0.0731 | – | 0.078 | 0.0937 | – | 0.0884 | –
R106F | 0.0834 | 0.063 | 0.0654 | 0.132 | 0.0702 | 0.0728 | 0.0705 | 0.0596 | 0.0556 | – | 0.0638 | – | 0.0557 | 0.042 | 0.0867 | 0.0711 | 0.0675 | 0.078 | –
E107W | 0.0724 | 0.0612 | – | 0.109 | 0.0843 | – | 0.0573 | – | – | – | – | 0.1 | – | 0.0664 | 0.0667 | 0.0636 | 0.0583 | – | –
E108T | 0.0455 | 0.0614 | 0.0656 | 0.0631 | 0.0235 | – | 0.0598 | 0.0577 | 0.0613 | 0.0542 | 0.0543 | 0.0674 | – | 0.0497 | 0.0686 | – | – | 0.125 | 0.0612
C111Y | 0.0683 | 0.0553 | 0.0603 | 0.094 | – | 0.0773 | 0.0689 | – | – | 0.0624 | 0.0474 | – | 0.0685 | 0.0595 | 0.0624 | 0.0811 | – | 0.136 | –
V113P | 0.0512 | 0.0543 | 0.0546 | 0.0621 | 0.0631 | 0.0605 | 0.0431 | 0.05 | 0.0605 | 0.0754 | – | – | – | – | 0.0601 | 0.0627 | 0.0381 | 0.0669 | 0.0549
T115N | 0.0525 | 0.0667 | 0.0661 | 0.0601 | – | 0.0445 | – | 0.065 | 0.066 | – | 0.0515 | – | – | – | – | 0.0641 | – | – | –
N116D | 0.117 | 0.0768 | 0.0331 | 0.0884 | 0.0593 | – | 0.0585 | 0.065 | 0.0708 | 0.0685 | 0.0533 | 0.0942 | – | – | 0.072 | 0.0879 | – | – | –
N116Q | 0.0631 | 0.0662 | 0.0899 | 0.0823 | 0.0617 | 0.0527 | 0.0756 | 0.0673 | 0.0613 | 0.0765 | 0.0696 | 0.0855 | 0.0571 | 0.0674 | 0.0717 | 0.0741 | – | – | –
F117H | 0.0659 | 0.0657 | 0.0645 | 0.0965 | 0.0875 | 0.0502 | 0.0635 | 0.0608 | 0.0666 | – | 0.0683 | 0.0827 | 0.0757 | – | 0.122 | 0.0861 | – | – | 0.0507
Q118T | 0.081 | 0.105 | – | – | 0.0772 | 0.0347 | 0.0583 | – | 0.0562 | – | 0.0625 | – | 0.0638 | – | – | 0.0745 | – | – | 0.0712
M122E | 0.0736 | 0.0862 | – | 0.096 | – | – | 0.0651 | 0.066 | 0.0684 | – | 0.0608 | 0.0826 | 0.0657 | 0.0662 | – | – | 0.0723 | – | –
S123M | 0.0627 | 0.0739 | 0.0653 | 0.0947 | – | 0.0616 | 0.0693 | 0.0616 | – | 0.088 | 0.0729 | – | 0.0652 | – | 0.0842 | 0.0791 | – | 0.0746 | –
S124W | 0.0792 | 0.0643 | 0.0622 | – | 0.0699 | – | 0.0461 | 0.0514 | 0.0717 | 0.0669 | 0.0583 | 0.0932 | – | – | 0.104 | – | 0.0651 | – | –
M125N | 0.0681 | 0.0656 | – | 0.0925 | 0.0707 | 0.0641 | 0.0659 | 0.0574 | 0.055 | 0.0775 | 0.0772 | 0.0834 | – | – | 0.0595 | 0.0672 | 0.0654 | 0.0685 | –
M125T | 0.0586 | 0.0627 | 0.0668 | 0.106 | 0.0741 | 0.0468 | 0.0629 | 0.0672 | 0.0769 | 0.0912 | 0.0486 | 0.0691 | 0.0723 | 0.103 | 0.0748 | 0.083 | 0.0962 | 0.0674 | 0.0742
M125V | 0.0743 | – | 0.0668 | 0.0901 | 0.0747 | 0.0465 | 0.0592 | – | – | 0.0773 | 0.0622 | – | 0.0699 | 0.0565 | – | 0.0507 | 0.0709 | 0.073 | –
V126F | 0.0579 | 0.0706 | 0.0684 | 0.0882 | 0.0877 | 0.0645 | – | 0.0657 | – | 0.101 | 0.0638 | – | 0.0746 | 0.128 | 0.108 | 0.0846 | – | – | –
V126M | 0.062 | 0.0645 | 0.0299 | 0.0806 | 0.0685 | – | 0.0651 | 0.0504 | 0.0799 | 0.0745 | – | – | 0.0572 | – | 0.0799 | 0.0883 | 0.0645 | 0.0782 | –
V126N | 0.0535 | 0.0551 | – | 0.0945 | 0.0682 | 0.0657 | 0.0628 | 0.0569 | – | – | 0.0509 | 0.0757 | 0.0686 | – | – | – | 0.0723 | 0.0698 | 0.0642
